Some of the results follow.
system: PF3D7_0420300 AP2 domain 1 (GST-tagged); experiment: gcPBM binding intensity (ln(normalized median fluorescence intensity)); higher = stronger DNA binding
Method in brief: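 Each value is the highest Masliner-normalised natural-log median intensity across replicate spots of either orientation of a probe. The probes were primer-extended double-stranded 36-bp intergenic genomic sequences on an Agilent 4 × 180k array, alongside negative controls, exposed for 1 h to GST-tagged P. falciparum DNA-binding domains expressed in E. coli. Bound protein was picked up with Alexa488 anti-GST antibody and scanned at 488 nm.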

Sequence	gcPBM binding intensity (ln)
TATTTTATATTTTATGCACACTTATAAGAAATATGT [CACACA_site5647]	9.19
ATGATTTCACAAGACACACACATACAAATTTATATA [CACACA_site3909]	9.64
CAGTATTACATGAGGACACACACAAAAAAAATATAT [CACACA_site8156]	9.88
TTAATATATTATCTGGTGCATAAACACGTTATACCT	9.19
ATAATGAAAACAAGCACACATACATAAAATAAAATA [CACACA_site3257]	9.86
ATGGAAGGATAATAAAAACCTTTACCTTTCTGTTTA [GTGCAC_negctrl_site380]	9.08
ATAAATTTTTAAACAGCACACATAAATATAATATAT [CACACA_site8691]	9.58
AATATTACAATTTGGTGTACAGGTGCACATGCCTCA [XGTACX_site1730]	9.26
TCTACAATTTTAATTACACACTATAAAAAAGAAAGA [CACACA_site5624]	9.35
TAGCTTATAAGATATGCACACACAACACTTACAAAA [CACACA_site8174]	9.67
AACAAATAAAAAAAAATAAAAATAAAAATAAAAAAA [XGTACX_negctrl_site451]	9.33
TTTAAAATTATAAGGATTAAAAAAAAAAAAAATAAA [CACACA_negctrl_site114]	9.06
TTATTTATGAAGTATACACACAATATAGATTTATAT [CACACA_site6703]	9.33
AAGAATTATATTAATAGTACATATATATTAATTTAT [XGTACX_site5713]	9.08
TTTTGTTATTATAAATAGTAACATTTGTGAATATAT [TGCATGCA_negctrl_site132]	8.92
AAGACATTTTTTTGTTGTACGTCTTCATTTATTGTA [XGTACX_site2890]	9.48
ATACTCACGAAACACACACACAATATATATATATAT [CACACA_site4136]	9.84
TTTATATTTCTTCATCGTACACATAAAAAAAAAAAA [XGTACX_site3244]	8.9
TTTTATATTTTAAGAGTGCATTTTATATCTTTTTCT	9.21
GAAAATATTAAATGAAGTACAATATTTATGTTACTT [XGTACX_site8737]	9.19
ATAATAACTGATAAATGTACATATAAATTTTATGAT [XGTACX_site195]	9.43
ATAATTTAAAAACATTGTACATTAATATATATGTAT [XGTACX_site8970]	9.12
AGGATATGCGGACACACACACATATATATATATATA [CACACA_site5247]	9.79

Sequence	gcPBM binding intensity (ln)
AATATATATTTGTGTACACATTATATATATATATAT [CACACA_site6103]	9.32
AATCTCAGAATATACTGTACTTTAAGAAAAAAAAAA [XGTACX_site110]	8.8
AAAATTTAAATAGGAAGTACGTTCACTAAGAAAATA [XGTACX_site6546]	9.37
AAATAAAGATATATATATATATATATATATAATTTT [CACACA_negctrl_site30]	9.11
CATAAATCAGCCATAACACACATACCTATATACATA [CACACA_site6324]	9.65
AAAATGTGCATATTTGCACACTTCAATATATATATA [CACACA_site1791]	9.22
AAATATTTTGCATACACATGCAAATATTTTTTACAT [TGCATGCA_site554]	9.16
AATATAAAAAGGCACACACACAAAAAAAAAAAAAAA [CACACA_site896]	9.78
TGAAAGAATGTTAATAGTACACACAATTATTATATA [XGTACX_site7936]	9.36
ATTGATATTGTATAATGTACAGGAAAAAAAAAAAAA [XGTACX_site526]	9.1
TAAGAACTATTCAGTAGTACCTATATGGATTACTAA [XGTACX_site4278]	8.87
TTCTTTATTTTTTCTACACACATTATGTATTCAAAG [CACACA_site3527]	9.88
TGAAAGAACCTGATTACACACATAAGTTATAAATAT [CACACA_site6165]	9.51
CAGGTGCACTATATTACACACGCTTCTTTTTTTTTA [CACACA_site2069]	9.64
TTGATATTATTGTATAAACATAATAGAGATAAAGAG [TGCATGCA_negctrl_site455]	9.35
TACAAAAAAATAAATAATAAAAAAAAATATATATAA [XGTACX_negctrl_site344]	9.33
TGAAGGATATATTCCGTGCACATATAAATATATACA	9.18
AACATGTTAACTAAATGTACACACCTATGTTGATGT [XGTACX_site3777]	9.45
GGAAAACACAAAAACTGTACATTTATTCAACATATA [XGTACX_site5831]	9.32
TATATACATATATACACACACATATATATATATATA [CACACA_site2805]	9.6
ATTTCTAAATGTTGGTGTACGTTTTTTTATAACCTT [XGTACX_site1752]	9.58
ATTATTTAAAAAAAATGTACATAATAAATATGAACG [XGTACX_site4010]	9.02
